Source: PubChem BioAssay AID493208 (National Center for Advancing Translational Sciences (NCATS), 2011)
The campaign covered roughly 44,000 compounds. About 340 (0.77%) were called active. Roughly 5% stayed inconclusive and do not appear here. Calls follow the shape of the dose curve; as a rule, active = well fitted inhibition curve with a large enough effect; inconclusive = small, poorly fitted or top-dose-only effect; inactive = flat fitted curve, though single readings scatter. Some of the results follow.

test: Acumen qHTS Assay for Inhibitors of the mTORC1 Signaling Pathway in MEF (Tsc2-/-, p53-/-) Cells: Sytravon; settings: phospho-rpS6 immunofluorescence/PI, 24 h; series mostly up to 38.3 µM; activity change, negative = inhibition: at the top concentration; also: nearly all actives have a fitted effect of over 50% in size;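 as to activity change, negative = inhibition: plate controls were DMSO for no effect and rapamycin for full effect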
Summary of the method: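 Cell-based qHTS: Tsc2-/- p53-/- MEF, 24 h cpd, 37 °C; fix/perm, anti-phospho-S6 Alexa-488 + PI; Acumen 488 nm scan; pS6/PI ratio, % positive cells; rapamycin 7.5 nM = inhibition ref; PI count = viability.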
Potency is read from the fitted curve at half-maximal effect.

| SMILES | activity change, negative = inhibition | Potency |
| --- | --- | --- |
| Cc1cc(C)n2nc(-c3ccc(Cl)cc3)nc2n1 | inactive: -3.6% | – |
| COc1ccc(OC)c(NC(=O)c2oc3c(c2C)-c2nn(Cc4ccc(Cl)cc4)cc2CC3)c1 | inactive: -4.97% | – |
| CC(C)Oc1ccc(CNC(=O)c2ccc(CS(=O)Cc3ccccc3Cl)o2)cc1 (stereo not drawn) | inactive: -15.1% | – |
| CC(=O)Nc1ccc(NC(=O)Cn2cc3c(n2)CCCCC3)cc1 | inactive: -4.92% | – |
| Cc1ccc2c(CC(=O)N3CCN(c4cccc(Cl)c4)CC3)coc2c1C | inactive: -3% | – |
| COC(=O)CN1C(=O)CSc2ccc(S(=O)(=O)Nc3ccccc3)cc21 | inactive: -1.82% | – |
| Cc1cccc(OCCSc2nc3ccc(NC(=O)COc4ccccc4C)cc3s2)c1 | inactive: -0.735% | – |
| COCCN(Cc1ccco1)C(=O)c1cc2c(Cl)nc3ccc(C)cc3c2s1 | inactive: 0.139% | – |
| COc1ccc(NC(=O)Cn2nc(SC)c(S(=O)(=O)c3ccc(C)cc3)c2N)cc1OC | inactive: 7.05% | – |
| CCN(CC)CCCNC(=O)CSc1nc2nc(C)c(Cc3ccccc3C)c(C)n2n1 | inactive: 0.775% | – |
| O=C(Nc1c(Cl)cccc1Cl)c1cccc2c1C(=O)N(C1CCCCC1)C2 | inactive: 0.768% | – |
| O=C(O)c1ccc2oc(=O)n(Cc3ccccc3)c2c1 | inactive: 0% | – |
| COc1ccc(-n2nc(C(=O)NCCCOC(C)C)c3c4ccccc4n(C)c3c2=O)cc1 | inactive: -10.5% | – |
| Fc1ccccc1N1CCN(c2ncnc3c2nc2n3CCCCC2)CC1 | inactive: -2.69% | – |
| COc1ccc(C2C(=O)N(C3CCC(C)CC3)CC(=O)N2C2CCCCC2)cc1OC (stereo not drawn) | inactive: 7.9% | – |
| CCC(=O)N1CCc2cc(Br)cc(S(=O)(=O)CCC(=O)N(C)c3cccc(C)c3)c21 | inactive: 3.83% | – |
| CCOc1ccc(NC(=O)CC2C(=O)N(c3ccc(F)cc3)C(=O)N2CCc2sccc2C)cc1 (stereo not drawn) | inactive: 0.0451% | – |
| COc1ccc(CNc2nc3c(-c4ccc(C)cc4)nnn3c3ccccc23)cc1 | inactive: -8.17% | – |
| CCOC(=O)c1cc2c(=O)n3ccccc3nc2n(CCCOC)c1=NC(=O)c1c(-c2ccccc2Cl)noc1C | inactive: 0.757% | – |
| CCCS(=O)(=O)NCCc1csc2nc(-c3ccc(C)cc3)nn12 | inactive: 1.1% | – |
| CCOc1ccc(NC(=O)C2CCCN(c3nn4cc(-c5ccc(OC)cc5)nc4s3)C2)cc1 (stereo not drawn) | inactive: -7.6% | – |
| Cc1nc2nc(C)c(NS(=O)(=O)c3ccc(F)cc3)c(=O)n2[nH]1 | inactive: -3.36% | – |
| O=C(Cn1cnc(S(=O)(=O)N2CCCC2)c1)Nc1cccc(F)c1 | inactive: 5.79% | – |
| Cc1ccccc1OCCCn1c(CCNC(=O)C2CCCCC2)nc2ccccc21 | inactive: -0.418% | – |

| SMILES | activity change, negative = inhibition | Potency |
| --- | --- | --- |
| CN(C(=O)Cn1c(=O)n(CCC(=O)NCc2ccc3c(c2)OCO3)c(=O)c2sccc21)c1ccccc1 | inactive: 4.22% | – |
| Cc1ccc(-n2ncc(C(=O)N3CCN(C4CCCCC4)CC3)c2C2CCN(C(=O)OC(C)(C)C)CC2)cc1C | inactive: 6.1% | – |
| Cc1ccc(NC(=O)c2sc3nc4n(c(=O)c3c2C)CCCCC4)c(Br)c1 | inactive: 0.597% | – |
| O=C1CC(c2nc3ccccc3n2CCC2CCCCC2)CN1c1ccccc1Cl (stereo not drawn) | inactive: -0.59% | – |
| Cc1cccc(N2CCN(C(=O)CCCn3c(=O)[nH]c4ccsc4c3=O)CC2)c1C | inactive: -9.67% | – |
| CCCCCCc1c(C)c2c(cc(C)c3c(C)c(C)oc32)oc1=O | inactive: -16.1% | – |
| Oc1c(C(c2ccccc2F)N2CCC3(CC2)OCCO3)sc2nc(-c3ccco3)nn12 (stereo not drawn) | inactive: -1.72% | – |
| CC(=O)c1cccc(NC(=O)C2=CC(c3ccc(F)cc3)=NS(=O)(=O)N2C)c1 | inactive: -6.52% | – |
| CCCCN(C(=O)Nc1ccc(Cl)cc1)C1CCN(C(C)=O)CC1 | inactive: -16.7% | – |
| O=C(NC1CCCCC1)c1ccc(CSc2nc3ccncc3n2Cc2ccccc2)cc1 | inactive: -3.04% | – |
| COC(=O)c1cc2oc3ccccc3c2n1CC(=O)Nc1ccc(OC)c(OC)c1 | inactive: -4.18% | – |
| COc1ccc(OC)c(CNC(=O)c2ccc(Sc3ccc(Cl)cc3)c(NC(C)=O)c2)c1 | inactive: 13.4% | – |
| O=C(NCCc1ccccc1)c1ccc(Cn2c(=O)c3cccn3c3cccnc32)cc1 | inactive: 0.835% | – |
| Cc1ccc2onc(CC(=O)N3CCN(c4ccc(Cl)cc4)CC3)c2c1 | inactive: 2.37% | – |
| Cc1ccc(NC(=O)Cn2c(=O)n(CCCC(=O)NCc3ccc4c(c3)OCO4)c(=O)c3ccccc32)cc1 | inactive: -14.6% | – |
| CCOc1cc(C2C(C(=O)Nc3ccccc3)=C(C)Nc3ncnn32)cc(Br)c1O (stereo not drawn) | inactive: 1.79% | – |
| COc1ccc(NC(=O)CN2C(=O)CSc3ccc(S(=O)(=O)N(C)C)cc32)cc1OC | inactive: -15.6% | – |
| Cc1cc2c(cc1S(=O)(=O)N(CCO)Cc1ccccc1)OCC(=O)N2 | inactive: -6.13% | – |
| CCNS(=O)(=O)c1cc(-c2nnc(Nc3cccc(C(F)(F)F)c3)c3ccccc23)ccc1C | – | active: 18.5 µM |
| Cc1ccc(NC(=O)Cn2c(CCC(=O)O)ccc2-c2cccs2)cc1Cl | inactive: -2.41% | – |
| CCc1cccc(CC)c1N(COC)C(=O)Cn1c(CC)nc2ccccc21 | inactive: -5.93% | – |
| Cc1ccc(C)c(NC(=O)CCS(=O)(=O)c2cccc3nsnc23)c1 | inactive: -3.85% | – |
| Cn1c(=O)oc2cc(S(=O)(=O)N3CCCC(C(=O)N4CCN(c5ccc(Cl)cc5)CC4)C3)ccc21 (stereo not drawn) | inactive: -2.15% | – |
| CCc1ccc2nc(N3CCN(C(=O)c4ccccc4)CC3)sc2c1 | inactive: -4.22% | – |
